{"source": "ChEMBL document CHEMBL4888484", "about": "“Replenishing the malaria drug discovery pipeline: Screening and hit evaluation of the MMV Hit Generation Library 1 (HGL1) against asexual blood stage Plasmodium falciparum ,using a nano luciferase reporter read-out” (2022)", "note": "Screen size: about 150,000 compounds; about 540 (0.36%) showed an effect of 50% or more. The list shows a part of the results."}
{"system": "Plasmodium falciparum", "assay": "Primary screen in NF54 nanoGlo assay, in single point, at 2uM, 72h; a lower Z score goes with more inhibition", "format": "functional, Erythrocyte", "conditions": "timepoint 72 hour", "units": {"% Inhibition": "%"}}
{"smiles": "Cc1cccc(Cl)c1CNC(=O)c1c(C)noc1-c1ccc(C(C)(C)C)cc1", "% Inhibition": -21, "Z score": 2.04}
{"smiles": "NC(=O)c1ccsc1NC(=O)c1ccc2c(c1)CCCC2", "% Inhibition": -9, "Z score": 1.59}
{"smiles": "CCn1nncc1C(=O)NCc1ccc([C@H](C)O)c(C)n1", "% Inhibition": -5, "Z score": 0.94}
{"smiles": "N#Cc1cnc2c(F)cc(F)cc2c1NCCc1nccn1C(F)F", "% Inhibition": -17, "Z score": 1.6}
{"smiles": "Fc1ccc(Br)c(CNCCc2nnc[nH]2)c1", "% Inhibition": 0, "Z score": -0.06}
{"smiles": "Cc1nc[nH]c1-c1nncn1-c1ccccc1", "% Inhibition": 21, "Z score": -2.03}
{"smiles": "CCCc1nc(C)c(CNC(=O)Nc2cnns2)s1", "% Inhibition": -8, "Z score": 0.91}
{"smiles": "CC[C@]1(CO)CCCN(Cc2cc3ccccc3n2C)C1", "% Inhibition": 0, "Z score": 0.03}
{"smiles": "CCC1=C(c2ccc(C)cc2)S(=O)(=O)N=C1NCC(=O)NCc1ccccc1F", "% Inhibition": -1, "Z score": 0.21}
{"smiles": "O=C(NCCCOCC1CC1)N1CC2CCCC2C1", "note": "(stereo unspecified)", "% Inhibition": -10, "Z score": 1.84}
{"smiles": "Cc1nc(N)nc(N2CC[C@H](c3ccccc3Cl)C2)c1CCC(=O)O", "% Inhibition": 6, "Z score": -1.2}
{"smiles": "O=C(c1n[nH]c(=O)c2ccccc12)N1CCC(Cc2ccccc2)CC1", "% Inhibition": -14, "Z score": 1.41}
{"smiles": "Cc1onc(-c2ccccn2)c1C(=O)NC1CCCCC1", "% Inhibition": 12, "Z score": -2.28}
{"smiles": "OCCN(CCO)Cc1ccc(F)c(Br)c1", "% Inhibition": -5, "Z score": 1.03}
{"smiles": "COc1ccc(Cc2nc(-c3ccc(C)cc3)n[nH]c2=O)cc1OC", "% Inhibition": 0, "Z score": -0.07}
{"smiles": "Cc1cc(-c2nc(-c3ccc(F)cc3)no2)c(C)n1CC(=O)NC1CCCC1", "% Inhibition": -3, "Z score": 0.68}
{"smiles": "CC(C)CC(OC(=O)CC1CCCO1)c1ccccn1", "note": "(stereo unspecified)", "% Inhibition": 2, "Z score": -0.28}
{"smiles": "O=C(Cn1cnnn1)N1CCC(Oc2cncc(Cl)c2)CC1", "% Inhibition": -2, "Z score": 0.34}
{"smiles": "CCC(C)(C)NS(=O)(=O)c1cccc(Br)c1", "% Inhibition": 17, "Z score": -2}
{"smiles": "Cc1ccc(S(=O)(=O)CCCC(=O)N(CCN(C)C)c2nc3c(F)cccc3s2)cc1", "% Inhibition": -7, "Z score": 1.14}
{"smiles": "Cc1c(C(=O)N[C@H](C)C(F)(F)F)ccc2cnc(C3CC3)n12", "% Inhibition": -14, "Z score": 2}
{"smiles": "CCCN(Cc1c[nH]nc1-c1ccc(F)cc1)Cc1nccn1C", "% Inhibition": -21, "Z score": 1.89}
{"smiles": "CC(=O)N1CC2(CCN(CCOc3ccc(Cl)cc3)CC2)C[C@H]1C(=O)O", "% Inhibition": -2, "Z score": 0.45}
{"smiles": "Cc1cc(C)cc(N2CCN(C(=O)c3[nH]c4ccc(C)cc4c3C)CC2=O)c1", "% Inhibition": -1, "Z score": 0.2}
{"smiles": "Cc1cccc(NS(=O)(=O)c2cc(-c3nc(C)cs3)sc2C)c1", "% Inhibition": 5, "Z score": -0.67}
{"smiles": "O=C(CCc1cc2n(n1)CCN(C(=O)c1ncccc1O)C2)N1CCOCC1", "% Inhibition": -1, "Z score": 0.22}
{"smiles": "CC(=O)Nc1onc(C)c1-c1ccc(C)c(S(=O)(=O)NCc2ccc(Br)cc2)c1", "% Inhibition": 14, "Z score": -2}
{"smiles": "Cn1ncc2c(N3CC(=O)N(C4CC4)C3)ncnc21", "% Inhibition": 38, "Z score": -5.46}
{"smiles": "CCc1cc(C#N)c(NC(=O)[C@@H](OC)C2CC2)s1", "% Inhibition": -5, "Z score": 0.78}
{"smiles": "Cc1ccc(S(=O)(=O)NCC(=O)NCC(=O)N[C@H]2CCCc3ccccc32)cc1C", "% Inhibition": -12, "Z score": 1.92}
{"smiles": "Cc1cc(NC(=O)[C@H]2CCCO2)nc(-c2ccccc2)n1", "% Inhibition": -7, "Z score": 0.73}
{"smiles": "Nc1nc(N2CCCCCC2)ncc1S(=O)(=O)c1cccs1", "% Inhibition": -4, "Z score": 0.38}
{"smiles": "Cc1c(C(=O)N2CCCCC2)c(C(F)(F)F)nn1[C@H]1CCCN(C(C)C)C1", "% Inhibition": -4, "Z score": 0.62}
{"smiles": "CC[C@@H](C(=O)NCCc1ccccc1)N1C(=O)CCn2nc(C)cc21", "% Inhibition": -2, "Z score": 0.18}
{"smiles": "COCCN1C(=O)NC2CC1(C)Oc1cc(Cl)ccc12", "note": "(stereo unspecified)", "% Inhibition": -10, "Z score": 1.65}
{"smiles": "Cc1cc(C(=O)N2CCCN(CC(=O)N3CCCC3)CC2)ccc1F", "% Inhibition": -13, "Z score": 1.88}
{"smiles": "CN1C(=O)c2cccnc2O[C@H]2CN(C(=O)C3CCCCC3)C[C@H]21", "% Inhibition": -1, "Z score": 0.11}
{"smiles": "CC(C)(C)c1ccc(OCCNS(C)(=O)=O)cc1", "% Inhibition": -6, "Z score": 0.92}
{"smiles": "CC1(C)Cc2nc(C(C)(C)C)ncc2[C@@H](NS(=O)(=O)c2cccnc2)C1", "% Inhibition": 17, "Z score": -2.26}
{"smiles": "Cc1cc(S(=O)(=O)N(CC2CC2)c2ccccc2)cnc1N", "% Inhibition": -8, "Z score": 0.92}
{"smiles": "COc1ccc(-n2ncc3c(N)c4c(nc32)C[C@H](c2ccccc2)CC4=O)cc1", "% Inhibition": -12, "Z score": 1.52}
{"smiles": "CC(C)C(C)(C)CN=C(N)N(C)C1CC1", "% Inhibition": -8, "Z score": 0.79}
{"smiles": "CCOc1ccc(CNC(=O)c2ccc(Oc3ccnc(-c4cccc(C)c4)n3)cc2)cc1OCC", "% Inhibition": 4, "Z score": -0.54}
